Assay results published in paper PMC6459857 (Nature Communications, 2019).

B1: p27-KID (p27-KID-Y89F) (domain or fragment)
chain: not shown
B2: pY88-p27-KID (domain or fragment)
chain: not shown
modifications: phosphotyrosine at 88
notes: also called Y88-phosphorylated p27-KID; source: E. coli, purified
B3: pY74/pY88-p27-KID (domain or fragment)
chain: not shown
modifications: phosphotyrosine at 74 and 88
notes: The NMR methods call this sample 'pY74/pY88-p27' among the p27-KID constructs; also called dual Y-phosphorylated p27-KID; source: E. coli, purified; phosphorylated with Src-KD, ATP and Mg2+ (told for pY74/pY88-p27)
B4: p27 (full length, Y89F) (natural protein)
chain: not shown
notes: p27Kip1 (p27), human, […] (full length); also called p27^Kip1; p[…]F; source: E. coli, purified (Ni2+-NTA, His-tag removed with thrombin, reverse-phase HPLC over C4 resin)

Tests used:
[1] = target: T1, Cdk2/cyclin A binary complex (human, UniProt P24941; P20248 part only); assay: cell-based or functional assay
[2] = target: T2, truncated human cyclin A (residues 173–432) (human, UniProt P20248 part only); assay: SPR; BIACORE 3000, 25 °C; p27-KID constructs covalently attached (EDC/NHS) to a CM-4 chip; Cdk2/cyclin A, cyclin A or Cdk2 flowed over at 50 µl/min in 10 mM Tris pH 8.0, 300 mM NaCl, 1 mM EGTA, 5 mM DTT, 0.1 mg/mL BSA, 0.005% Tween20; 1:1 (Langmuir) model, KD = kd/ka; apparent KD; conditions: both partners purified
T2 construct: truncated human cyclin A, residues 173–432; source: E. coli, purified (Ni2+-NTA, His-tag removed with thrombin, gel filtration)

[3] = target: T1, Cdk2/cyclin A binary complex; assay: as above; conditions: both partners purified
[4] = target: T1, Cdk2/cyclin A binary complex; assay: ITC; 10 µM p27 or p27 Y to E variants injected into 1 µM Cdk2/cyclin A binary complex; 20 mM HEPES pH 7.5, 300 mM NaCl, 2 mM TCEP; experiments from 5 to 25 °C in intervals of 5 °C (temperature of the tabulated values not stated); single-site binding model; conditions: both partners purified

| Binder | IC50 of inhibition of the kinase activity of Cdk2/cyclin A toward histone H1 [1] [nM] | Kd [2] [nM] | Kd [3] [nM] | Kd [4] [nM] | dH [4] [kcal/mol] |
| --- | --- | --- | --- | --- | --- |
| B1 | 2.8 | – | – | – | – |
| B2 | 12 | < 52 | < 2.9 | – | – |
| B3 | 29 | < 52 | < 2.9 | – | – |
| B4 | – | – | – | 4.9 | -50.6 |
